In the data set the test system is ATP. Nature of the data set: switch fluorescence ratio, 500 uM ATP over buffer (Cy3 cluster intensity, sum of 5 cycles each) (fold (ratio)); higher = stronger signal-on switching upon ATP binding; sequences stand for … in TCGTCGGCAGCGTCAGATGTGTATAAGAGACAGTTTTTTTTTTTTTTTTTTTTTTTTT…TC. As to conditions: aptamer strand: ATP DNA aptamer (quencher-CACCTGGGGGAGTATTGCGGAGGAAGG + anchor), 100 nM annealed; ATP concentration: 500 uM; one replicate. In short, it runs like this:
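The fluorescence ratio divides summed target-cycle Cy3 intensity by summed buffer-cycle Cy3 intensity for each cluster and is averaged per switch-domain sequence. Cy3-labelled switching-strand clusters on a modified Illumina MiSeq flow-cell were annealed to 100 nM quencher-labelled ATP aptamer, then imaged in selection buffer and again after 15 min with 500 uM ATP at 22 °C. Five such cycles were run, with NaOH stripping and re-annealing between them, and clusters outside 100-1000 RFU were excluded.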

Values marked as one replicate rest on one cluster of the flow cell; about a third of the high ones do not repeat.
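Note: ATP exposure 15 min at 22 °C before imaging.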

Take GACTGTGTAC: the switch fluorescence ratio was 1.21.

Consider CAGTTTTAGA, for which the switch fluorescence ratio was 0.967.

On to GCGGAGTGGA, for which the switch fluorescence ratio is 1.02.

Turning to AAATCCGTG, the switch fluorescence ratio was found to be 1.

Take CGGCAACGTT: the switch fluorescence ratio was found to be 0.955.

As for CACTATTAT, the switch fluorescence ratio was 1.03.

Consider ATAGGACTCG, for which the switch fluorescence ratio was determined as 0.981.

As to AGCTTGGCGG, the switch fluorescence ratio came to 1.

For the sequence TATTTAAGCC, the switch fluorescence ratio was 1.02.

As for AGCCGAATTA, the switch fluorescence ratio came out at 0.998.

Consider TTTGTAACGT, for which the switch fluorescence ratio came to 0.992.

On to AGGAGGAACT, for which the switch fluorescence ratio worked out at 1.02.

For the sequence ATCTTGTTAG, the switch fluorescence ratio came out at 0.936.

On to AAGATGCGTT, for which the switch fluorescence ratio is 0.987.

As for CACGAATCTG, the switch fluorescence ratio was determined as 0.999.

In the case of TCAAGAGGAA, the switch fluorescence ratio stood at 0.957.

Regarding GGCGCTTTTA, the switch fluorescence ratio worked out at 0.965.

For TTATCGGTCC, the switch fluorescence ratio came to 0.994.

For CAGATAGGGA, the switch fluorescence ratio was determined as 0.982.

ACTTATGCTG: the switch fluorescence ratio was 0.928.

As for TTGGGGCTCA, the switch fluorescence ratio turned out to be 0.994.

With AAACGCGGCT, the switch fluorescence ratio came out at 1.03.

Consider AAAGTTAGT, for which the switch fluorescence ratio was found to be 1.01.

CAATCTCGCT: the switch fluorescence ratio came to 0.994.

In the case of CAGGGCCGCA, the switch fluorescence ratio turned out to be 1.08.

For the sequence AGAGTATTTC, the switch fluorescence ratio amounted to 1.03.

For the sequence AGAGTATCGT, the switch fluorescence ratio stood at 0.975.

Regarding CGCTCAAAG, the switch fluorescence ratio came out at 1.02.

AGACGCCGA: the switch fluorescence ratio was determined as 0.977.

With TGCGATGCCC, the switch fluorescence ratio turned out to be 1.03.

For the sequence CCGCCTGATA, the switch fluorescence ratio was 1.88.

Turning to GGCGTGGGTC, the switch fluorescence ratio is 1.06.

Take GAAATGTTAT: the switch fluorescence ratio worked out at 0.979.

Consider CGCAGCGAGG, for which the switch fluorescence ratio came out at 1.38.

As for GGGGGTCTAT, the switch fluorescence ratio was found to be 1.02.

With CATCCCGTAG, the switch fluorescence ratio came out at 1.32.

Regarding GCAGCGCTGT, the switch fluorescence ratio came to 1.01.

Regarding TTTACGCTAG, the switch fluorescence ratio turned out to be 1.05.

Consider AACCGGTTGA, for which the switch fluorescence ratio was found to be 1.01.

ACTGTCTGCA: the switch fluorescence ratio was 1.11.

For the sequence GACACGGGAA, the switch fluorescence ratio came out at 1.06.

Consider GTAGTTCCGA, for which the switch fluorescence ratio was determined as 1.03.

As to ACGGCGTCGG, the switch fluorescence ratio came to 1.

As for TTACCTCCTT, the switch fluorescence ratio is 1.1.

On to ATGGCTTGCG, for which the switch fluorescence ratio worked out at 0.951.

AAAGTCGGCT: the switch fluorescence ratio is 1.07.

Turning to GAAATTAGGT, the switch fluorescence ratio came to 1.01.

With AACGTCAACG, the switch fluorescence ratio was determined as 1.08.

As to TCATAAAGCA, the switch fluorescence ratio came out at 1.04.

Consider ATTTATCAGG, for which the switch fluorescence ratio was 1.02.

As for CCCCCCTCTA, the switch fluorescence ratio stood at 1.06.

On to GTATTTAAC, for which the switch fluorescence ratio worked out at 1.05.

Regarding CCCCTTTACG, the switch fluorescence ratio turned out to be 1.04.

For the sequence CGGGCCTAGG, the switch fluorescence ratio was determined as 0.954.

ATATACTAAC: the switch fluorescence ratio came to 1.17.

As to GGCCCAGCCA, the switch fluorescence ratio worked out at 0.995.

On to TCTGAAATTG, for which the switch fluorescence ratio was 0.971.

Regarding AGAGGCTGAG, the switch fluorescence ratio was found to be 0.951.

Take ACTTGTCTAT: the switch fluorescence ratio was determined as 1.

Take GACATCCTAA: the switch fluorescence ratio stood at 1.03.

As to AGAAGTGATG, the switch fluorescence ratio was 1.03.

Regarding TCAGTTGCCT, the switch fluorescence ratio was determined as 0.986.

TAGACTAAAT: the switch fluorescence ratio is 1.07.

Regarding GACGTCAATT, the switch fluorescence ratio was 1.

Regarding AGCTTACTTC, the switch fluorescence ratio stood at 1.34.

As to CCGATGCCCC, the switch fluorescence ratio came to 3.63.

On to GCATTGAAGA, for which the switch fluorescence ratio was 0.994.

As for CCCTGGGCCC, the switch fluorescence ratio was found to be 1.02.

Regarding TCGTTCGAAC, the switch fluorescence ratio is 0.95.

Take TAACGTAAC: the switch fluorescence ratio amounted to 1.45.

For GATTATTGTC, the switch fluorescence ratio was 0.94.

On to TGTCGGTCGC, for which the switch fluorescence ratio is 0.926.

For CATTAAAGTT, the switch fluorescence ratio worked out at 0.991.

TATCAGAACT: the switch fluorescence ratio worked out at 1.01.

Take TTGCTAATGG: the switch fluorescence ratio came to 0.964.

Regarding CCGTCTAGGG, the switch fluorescence ratio is 1.05.

Consider ACAATCGAGG, for which the switch fluorescence ratio came out at 1.08.

Regarding GAGAAGATGA, the switch fluorescence ratio amounted to 0.985.

In the case of TCATAATACA, the switch fluorescence ratio is 1.02.

Regarding ATTGGTGCAC, the switch fluorescence ratio came out at 1.01.

For GACCATTTT, the switch fluorescence ratio was 1.04.

In the case of TTTAAGGTGC, the switch fluorescence ratio worked out at 1.51.

For the sequence ATTTGTAGCC, the switch fluorescence ratio was found to be 1.

ATTTTAGCGC: the switch fluorescence ratio amounted to 0.946.

Take GGCACGCAAT: the switch fluorescence ratio is 5.55.

AAACTTGAGA: the switch fluorescence ratio was 1.01.

With AAACCGTATT, the switch fluorescence ratio stood at 1.13.

As for TGAGAATTTC, the switch fluorescence ratio turned out to be 1.01.

With AAGGTAATGC, the switch fluorescence ratio was determined as 1.24.

As to GTTTGTGCTA, the switch fluorescence ratio came to 0.971.

As to AGGGTGCCTC, the switch fluorescence ratio was determined as 0.961.

Consider GCCCTAGTCA, for which the switch fluorescence ratio was 0.988.

For the sequence ATTAAATGCC, the switch fluorescence ratio is 1.03.

Regarding ATAGTTCGT, the switch fluorescence ratio came to 0.96.

On to TCTCTTTCTT, for which the switch fluorescence ratio is 1.05.

For GTTCAAAGGC, the switch fluorescence ratio was found to be 1.03.

On to GCATGTACGG, for which the switch fluorescence ratio amounted to 1.1.

For the sequence ATAGAGGTAT, the switch fluorescence ratio came to 0.985.

Take TCCGGTCATA: the switch fluorescence ratio is 1.12.

On to GGGGTAGCTA, for which the switch fluorescence ratio was determined as 1.02.

Consider AGCAGACAGC, for which the switch fluorescence ratio is 1.02.

For CTGGAGCTCA, the switch fluorescence ratio was determined as 2.48.

Turning to CTAGTCGCGA, the switch fluorescence ratio was determined as 1.04.

As to TTTTACCCCA, the switch fluorescence ratio worked out at 1.07.

With GACCTTATTG, the switch fluorescence ratio was 1.

As for CAGGCTATAG, the switch fluorescence ratio stood at 0.971.

TGTACCTTAT: the switch fluorescence ratio stood at 1.03.

On to ATTGAACGT, for which the switch fluorescence ratio turned out to be 0.867.

As for GTATCCATAG, the switch fluorescence ratio worked out at 0.967.

Take AGAAAGATT: the switch fluorescence ratio is 0.998.

Consider CAGGCGATCC, for which the switch fluorescence ratio amounted to 1.15.

Consider TCGTGAAAGC, for which the switch fluorescence ratio came to 1.02.

As to TGGCGGGGCC, the switch fluorescence ratio came to 1.02.

As to AGAAGCACCT, the switch fluorescence ratio came to 1.06.

For AAACACGGCA, the switch fluorescence ratio is 1.12.

Regarding CCATGCGTGG, the switch fluorescence ratio worked out at 1.

With AAGTCTACGT, the switch fluorescence ratio stood at 1.03.

For the sequence AACTGGAAAC, the switch fluorescence ratio was determined as 1.14.

In the case of AGTGAACGTG, the switch fluorescence ratio was found to be 1.01.

As to TGTCACACGT, the switch fluorescence ratio was found to be 1.

Source of the values: the supplement of paper PMC10126150.
